{
  "source": "patent US11136613B2",
  "about": "“Antibacterial polypeptide libraries and methods for screening the same” (priority 2015, dated 2021)",
  "system": "antimicrobial peptide resistant E. coli strain WD101",
  "experiment": "Peptide library screen by next-generation sequencing, output versus input abundance",
  "conditions": "WD101, 0.1 mM IPTG, 3 hours",
  "text": "FIGS. 5A-B: (A) Abundance of sequencing reads from the input library is plotted against abundance of sequencing reads from a representative output sample. The red box encloses peptides that are 15-125 fold depleted in the output samples. (B) Peptide A, shown in panel 5A, was re-cloned into our surface expression system and grown in wild type W3110 E. coli and the isogenic antimicrobial resistant E. coli strain WD101. IPTG induction of Peptide A led to cell lysis of both strains. Lysis by cecropin P1 is shown as a control.\nA significant advancement of this platform is using next-generation sequencing to quantify the antimicrobial activity of individual peptides as part of a massive pool. This increases throughput while greatly reducing screening costs. The inventors' platform uses simple subtractive analysis of output from input library pools to determine peptide sequences that cause cell lysis and eliminate themselves from the input pool. One lane of a standard HiSeq Illumina sequencer generates 200 million sequencing reads. […]\nUsing this workflow, the inventors performed a proof of principle experiment, to validate the use of the platform to identify potent antimicrobial peptides. […] Approximately 2 million sequencing reads for input and output samples were acquired, giving ˜20 fold coverage of each input peptide sequence. […]",
  "data": [
    {"substance": "cecropin P1 (SWLSKTAKKLENSAKKRISEGIAIAIQGGPR; Cecropin-P1; UniProt P14661 14-44, looked up)", "values": [
      {"measurement": "output/input ratio of sequencing reads", "value": "did not change"}
    ]}
  ]
}
